# Results taken from the supplement of paper PMC11417369.
# The other results are listed elsewhere or left out.
# Test system: PF3D7_0420300 AP2 domain 1 (GST-tagged)
# Test: gcPBM binding intensity (ln(normalized median fluorescence intensity)); higher = stronger DNA binding
# Summary of the method: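 GST-fused DNA-binding domains of P. falciparum, expressed in E. coli, were applied at about 25 μg on average for 1 h to an Agilent 4 × 180k array of primer-extended double-stranded 36-bp intergenic genomic probes and negative controls. Binding intensity is the highest Masliner-normalised natural-log median intensity across replicate spots of either probe orientation, measured with Alexa488 anti-GST antibody and a 488 nm scan.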
row,Sequence,gcPBM binding intensity (ln)
1,TATACACCCGGACACACACACATATATATATATATA [CACACA_site5030],9.94
2,TAAGTATACACATACACACACACACTAATAAAAAAA [CACACA_site8035],10.1
3,TAAAAATATTAATAAACACACAATGAGATATTGAAT [CACACA_site3153],9.68
4,ATATATATATTATATGCACACGTTAAAATTTCATAT [CACACA_site4552],9.38
5,TGATATATTTATATTACACACTTAAACGAAAAAAAA [CACACA_site3021],9.29
6,TATTATAATATTTATACACACATAATTTTGATAAAT [CACACA_site583],9.31
7,AAATATAAAATTTATTGTACATTATATATAATATAT [XGTACX_site1416],9.14
8,AATATAAGTAGTACAGTGCATATAATAATTAGAAGA [GTGCAC_site9485],9.61
9,TTGATTTATATTTAATGTACATTTTTACAGAAAATT [XGTACX_site2747],8.93
10,CCATAAAAAGGATACACACACACACGCACATATATA [CACACA_site6550],10.2
11,GATTAAACACAAAGAAGTACGGACATAAAAAAAAAA [XGTACX_site3686],9.56
12,TCGTGGTTTTAATAAGTGCGCAATTTAAATATTTTT,9.38
13,TATTATTATTATTACACACACAATTATATTTACCCC [CACACA_site503],9.84
14,GTATATATATATATATATATATATTTTTATTTATTT [CACACA_negctrl_site589],8.96
15,GAAATGTGGTAATATACACACACGCATATATTTATA [CACACA_site6285],9.55
16,TTTGAACTCTTAAGTGGTACAAATTTGTATTTTCTC [XGTACX_site2322],9.13
17,AATGGAATATATATTTGTACATAAATATTATAATAA [XGTACX_site8524],9.23
18,TATAAATAAAAATATACACACTGTATTATTGTAATA [CACACA_site7721],9.34
19,TTTACTCCTACAACATGTACATAAAATAAATTTTTT [XGTACX_site5010],9.11
20,ACATGTTAACTAAATGTACACACCTATGTTGATGTA [CACACA_site1821],9.43
21,TTATTTACAACTTTTTTTTTTTTATTTTATTTTATT [CACACA_negctrl_site341],9.36
22,TGCATACTAGCCAATTGTACATAATTTTATTTTAAA [XGTACX_site513],9.06

row,Sequence,gcPBM binding intensity (ln)
1,ATTATGATTTTATAGAACTGAACATTTACATTAAAT [GTGCAC_negctrl_site192],9.09
2,AAAAGGAACAGACACACACACATATATATATATATA [CACACA_site3587],9.85
3,AAAATAAATCTGAATGGGGTATAATATATCTTTGTT [CACACA_negctrl_site744],9.31
4,ATAACAAAATAAAACACACACACAAATGTACTTATA [CACACA_site8768],9.93
5,ATTTATTATATATACACACATACATATATATATATA [CACACA_site2159],9.62
6,AAAAAATTCTGGTACTGTACACATTTTTTTAAATTT [XGTACX_site6904],9.28
7,TGCTTTTATTTCTTCACACATATGTAAAAAAAAGAA [CACACA_site5906],8.94
8,ATTATATTAGGTAATCAGTTAAATGTTTCCTTTTTA [CACACA_negctrl_site1229],9.2
9,GTTATACTCATATATACACACATATGTAAATATATA [CACACA_site5764],9.49
10,ATATAAATAATGTTGACACACACAATAATCTTATTA [CACACA_site9197],9.56
11,AAAATATGGATTCATGATATTAAATTTAATTTAATG [XGTACX_negctrl_site214],8.95
12,ATACGAAAAAAAAAAAGTACACAAAAATATCTACAT [XGTACX_site2051],9.57
13,TTTATATAATTTTGTGGTACTTATGTGTGTATATTA [XGTACX_site706],9.75
14,CGCGCACCCAGACACACACACACACCGATATATATA [CACACA_site8687],10.2
15,TAAATTATCTTTTTATGTACTTATTTTTATTATTTT [XGTACX_site3158],9.55
16,AAAAAAAAAAAAAGTACACACTTATAAAATATTATG [CACACA_site4639],9.4
17,TATTTTCAACATATTTGTACATATTTTATATTTTAA [XGTACX_site101],9.23
18,TATAATATAATTAAAAGTACTTAAAAAAGAATGAAA [XGTACX_site1157],9.25
19,TGTTTATATAATATTCTACACACCAACAACAAACAT [CACACA_site8087],9.74
20,TTTTTAAAACATATCACACATATATATATATATATA [CACACA_site5991],9.11
21,TATTTTTATAAAAATCGTACAAGTGATCCAATTTTT [XGTACX_site4402],9.05
22,CCGTATTCAAAAAGGAGTACACAATTATATGTTATA [XGTACX_site641],9.15
